{"sequences": {"note": "Chains of the proteins cited; added tags and fusions are not shown. Lines headed by an entry give the natural chain unless they say otherwise; changes in a name come on top. A line that says so, or that is headed by a name, gives the form on record, which may keep a tag or linker. Residues count along the entry.", "UniProt Q62432": "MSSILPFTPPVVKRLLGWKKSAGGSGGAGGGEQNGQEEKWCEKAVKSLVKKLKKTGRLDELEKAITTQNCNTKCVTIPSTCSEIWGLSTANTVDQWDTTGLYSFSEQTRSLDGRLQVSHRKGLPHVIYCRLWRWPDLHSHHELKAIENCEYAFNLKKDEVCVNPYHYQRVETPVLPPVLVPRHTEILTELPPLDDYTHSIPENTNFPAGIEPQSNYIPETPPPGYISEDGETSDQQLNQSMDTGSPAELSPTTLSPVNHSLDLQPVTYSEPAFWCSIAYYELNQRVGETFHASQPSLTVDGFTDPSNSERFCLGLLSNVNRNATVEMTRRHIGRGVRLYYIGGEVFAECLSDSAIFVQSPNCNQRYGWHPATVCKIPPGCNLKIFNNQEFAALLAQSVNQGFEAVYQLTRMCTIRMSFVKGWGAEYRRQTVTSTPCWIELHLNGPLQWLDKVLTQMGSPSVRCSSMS", "UniProt Q8BUN5": "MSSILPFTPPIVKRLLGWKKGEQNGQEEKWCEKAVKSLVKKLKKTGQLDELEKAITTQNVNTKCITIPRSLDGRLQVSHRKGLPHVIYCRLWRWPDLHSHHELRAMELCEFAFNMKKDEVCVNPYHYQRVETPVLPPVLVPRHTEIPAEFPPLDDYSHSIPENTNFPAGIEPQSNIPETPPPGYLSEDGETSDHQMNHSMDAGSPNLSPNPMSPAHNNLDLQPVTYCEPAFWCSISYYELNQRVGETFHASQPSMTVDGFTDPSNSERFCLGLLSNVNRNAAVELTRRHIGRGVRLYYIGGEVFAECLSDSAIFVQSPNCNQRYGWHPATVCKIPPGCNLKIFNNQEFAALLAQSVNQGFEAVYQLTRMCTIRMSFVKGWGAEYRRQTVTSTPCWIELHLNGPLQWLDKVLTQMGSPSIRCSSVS", "UniProt P97471": "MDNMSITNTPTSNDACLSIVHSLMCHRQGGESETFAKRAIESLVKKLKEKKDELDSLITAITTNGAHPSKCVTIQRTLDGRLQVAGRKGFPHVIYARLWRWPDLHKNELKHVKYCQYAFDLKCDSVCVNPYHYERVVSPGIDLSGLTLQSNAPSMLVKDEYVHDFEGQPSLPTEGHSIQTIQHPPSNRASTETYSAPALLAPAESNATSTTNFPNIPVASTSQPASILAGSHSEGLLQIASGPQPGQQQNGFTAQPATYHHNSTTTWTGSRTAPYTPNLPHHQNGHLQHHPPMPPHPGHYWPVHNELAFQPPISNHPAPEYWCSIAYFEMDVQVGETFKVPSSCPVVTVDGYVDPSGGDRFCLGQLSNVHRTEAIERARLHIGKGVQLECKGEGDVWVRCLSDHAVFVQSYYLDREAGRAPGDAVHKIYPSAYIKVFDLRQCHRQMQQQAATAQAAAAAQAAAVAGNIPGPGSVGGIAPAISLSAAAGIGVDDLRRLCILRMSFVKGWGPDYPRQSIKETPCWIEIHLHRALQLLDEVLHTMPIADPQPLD", "GST-tagged Smad4 truncate with the MH1 domain": "residues 18-142 of P97471"}, "source": "paper PMC5503621", "key": {"GST-tagged Smad2": {"target": "GST-tagged Smad2 (UniProt Q62432)", "experiment": "pull-down; in vitro GST pull-down: GST-tagged Smads or Smad4 truncates on glutathione-Sepharose beads, His-tagged OVOL2 as prey; 4°C, 3 h; the methods say that nuclear extracts were incubated with the resin-bound proteins; only the target purified"}, "GST-tagged Smad3": {"target": "GST-tagged Smad3 (UniProt Q8BUN5)", "experiment": "pull-down; in vitro GST pull-down: GST-tagged Smads or Smad4 truncates on glutathione-Sepharose beads, His-tagged OVOL2 as prey; 4°C, 3 h; the methods say that nuclear extracts were incubated with the resin-bound proteins; only the target purified"}, "GST-tagged Smad4": {"target": "GST-tagged Smad4 (UniProt P97471)", "experiment": "pull-down; in vitro GST pull-down: GST-tagged Smads or Smad4 truncates on glutathione-Sepharose beads, His-tagged OVOL2 as prey; 4°C, 3 h; the methods say that nuclear extracts were incubated with the resin-bound proteins; only the target purified"}, "[1]": {"target": "GST-tagged Smad4 truncate with the MH1 domain (UniProt P97471)", "experiment": "pull-down; in vitro GST pull-down: GST-tagged Smads or Smad4 truncates on glutathione-Sepharose beads, His-tagged OVOL2 as prey; 4°C, 3 h; the methods say that nuclear extracts were incubated with the resin-bound proteins; only the target purified"}, "GST-tagged OVOL2": {"target": "GST-tagged OVOL2 (UniProt Q8CIV7)", "experiment": "pull-down; in vitro GST pull-down: GST-tagged OVOL2 or OVOL2 truncates on glutathione-Sepharose beads, His-tagged Smad4 as prey; 4°C, 3 h; the methods say that nuclear extracts were incubated with the resin-bound proteins; only the target purified"}, "[2]": {"target": "FLAG-tagged Smad4 (NMuMG) (UniProt P97471)", "experiment": "co-IP; NMuMG cells infected with lentivirus (vector control or OVOL2), transfected with FLAG-tagged Smad4, with or without TGF-β1 for 48 h; anti-FLAG immunoprecipitation, immunoblot for Smad2/3 and OVOL2"}, "[3]": {"target": "FLAG-tagged Smad4 (HEK293T) (UniProt P97471)", "experiment": "co-IP; HEK293T cells transfected with FLAG-tagged Smad2/Smad3/Smad4 and untagged OVOL2; lysates immunoprecipitated with anti-FLAG antibody, immunoblot for OVOL2; lysis buffer 20 mM Tris-HCl pH 7.5, 150 mM NaCl, 1% Triton X-100"}, "[4]": {"target": "Ovol2 (endogenous, 4T1) (mouse (endogenous in 4T1)) (UniProt Q8CIV7)", "experiment": "co-IP; endogenous proteins; nuclear extracts of non-transfected 4T1 cells; immunoprecipitation of OVOL2, blot for Smad4"}}, "note": "No constants are given. Whether binding was seen depends on the method and setting. In cells and extracts the contact can be indirect. Some results given as binding are weak or reduced against the parent protein; the word gives no strength.", "data": [{"substance": "His-tagged OVOL2 (from UniProt Q8CIV7 1-274)", "values": [{"measurement": "binding", "setting": "GST-tagged Smad2", "value": "no binding"}, {"measurement": "binding", "setting": "GST-tagged Smad3", "value": "no binding"}, {"measurement": "binding", "setting": "GST-tagged Smad4", "value": "binds"}, {"measurement": "binding", "setting": "[1]", "value": "binds"}]}, {"substance": "His-tagged Smad4 (from UniProt P97471 1-551)", "values": [{"measurement": "binding", "setting": "GST-tagged OVOL2", "value": "binds"}]}, {"substance": "OVOL2 (lentiviral overexpression, NMuMG) (from UniProt Q8CIV7 1-274)", "values": [{"measurement": "binding", "setting": "[2]", "value": "binds"}]}, {"substance": "OVOL2 (untagged) (from UniProt Q8CIV7 1-274)", "values": [{"measurement": "binding", "setting": "[3]", "value": "binds"}]}, {"substance": "Smad2 (endogenous, NMuMG) (from UniProt Q62432 1-467)", "values": [{"measurement": "binding", "setting": "[2]", "value": "binds"}]}, {"substance": "Smad3 (endogenous, NMuMG) (from UniProt Q8BUN5 1-425)", "values": [{"measurement": "binding", "setting": "[2]", "value": "binds"}]}, {"substance": "Smad4 (endogenous, 4T1) (from UniProt P97471 1-551)", "values": [{"measurement": "binding", "setting": "[4]", "value": "binds"}]}]}
